Structures are written as SMILES. Hit rate of the full screen: of about 310,000 compounds, about 2,200 (0.71%) showed an effect of 50% or more. Effects have a minus sign here. This is one part of the list.

The target of this experiment is human ether-à-go-go-related gene (hERG) potassium channel (human, UniProt Q12809). Description: primary screen, population patch clamp on CHO cells stably expressing hERG.
Chain of human ether-à-go-go-related gene (hERG) potassium channel (Q12809 whole entry, looked up): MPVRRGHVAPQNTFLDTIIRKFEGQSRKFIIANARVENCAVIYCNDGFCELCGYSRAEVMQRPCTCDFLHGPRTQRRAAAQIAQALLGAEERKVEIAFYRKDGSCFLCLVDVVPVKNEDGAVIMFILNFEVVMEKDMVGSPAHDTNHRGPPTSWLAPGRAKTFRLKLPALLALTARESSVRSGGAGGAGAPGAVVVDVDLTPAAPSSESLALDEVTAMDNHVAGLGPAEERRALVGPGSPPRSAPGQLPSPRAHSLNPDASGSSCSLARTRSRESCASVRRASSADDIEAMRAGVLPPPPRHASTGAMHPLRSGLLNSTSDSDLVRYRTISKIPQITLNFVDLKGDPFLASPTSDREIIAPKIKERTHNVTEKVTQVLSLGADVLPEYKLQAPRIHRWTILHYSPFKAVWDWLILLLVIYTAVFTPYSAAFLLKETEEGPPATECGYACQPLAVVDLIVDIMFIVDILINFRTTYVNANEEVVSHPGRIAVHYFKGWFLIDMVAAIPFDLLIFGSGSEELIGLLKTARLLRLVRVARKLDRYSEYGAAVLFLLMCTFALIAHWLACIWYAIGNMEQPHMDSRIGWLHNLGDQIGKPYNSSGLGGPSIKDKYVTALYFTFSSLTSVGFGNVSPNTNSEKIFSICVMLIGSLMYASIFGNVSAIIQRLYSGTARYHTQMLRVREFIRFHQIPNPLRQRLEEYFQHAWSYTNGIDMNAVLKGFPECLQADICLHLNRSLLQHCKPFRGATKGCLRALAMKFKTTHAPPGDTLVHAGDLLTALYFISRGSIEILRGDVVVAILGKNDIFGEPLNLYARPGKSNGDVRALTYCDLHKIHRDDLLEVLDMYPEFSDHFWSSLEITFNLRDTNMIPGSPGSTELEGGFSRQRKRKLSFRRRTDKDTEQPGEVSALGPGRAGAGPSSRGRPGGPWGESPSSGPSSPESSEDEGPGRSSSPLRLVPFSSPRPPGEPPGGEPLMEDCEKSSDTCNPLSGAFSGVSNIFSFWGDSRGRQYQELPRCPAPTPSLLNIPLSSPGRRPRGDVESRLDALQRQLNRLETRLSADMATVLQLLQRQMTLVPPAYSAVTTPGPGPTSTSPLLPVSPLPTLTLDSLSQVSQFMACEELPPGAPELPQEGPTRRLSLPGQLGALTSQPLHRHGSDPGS
Regarding `CC1=NN(c2ccccc2)C(=O)/C1=C\N(O)c1ccccc1`, the “hERG current change (%, negative = inhibition) at 1uM” value is 13.6%.

In the case of `COc1cccc(C(=O)NCc2ccccc2OC)c1`, the “hERG current change (%, negative = inhibition) at 1uM” value was 7.18%.

For `C/C(=N\NC(=O)CCc1ccc(S(=O)(=O)N2CCOCC2)cc1)c1ccccc1Cl`, the “hERG current change (%, negative = inhibition) at 1uM” value is reported as 11%.

As to `COc1ccc(CC(=O)Nc2nc(-c3ccccc3)c(C(C)=O)s2)cc1OC`, the “hERG current change (%, negative = inhibition) at 1uM” value is given as 14.5%.

Consider `COCCCN1Cc2cccc(C(=O)O)c2C1=O`, for which the “hERG current change (%, negative = inhibition) at 1uM” value turned out to be 2%.

Turning to `CC1CCCN(CCCNC(=O)c2ccc(CS(=O)(=O)Cc3cccc(Cl)c3)o2)C1` (stereo not drawn), the “hERG current change (%, negative = inhibition) at 1uM” value is 10.5%.

With `O=C(NCCc1c[nH]c2ccccc12)C1Cc2ccccc2CN1C(=O)c1ccco1` (stereo not drawn), the “hERG current change (%, negative = inhibition) at 1uM” value is -35.1%.

Take `NC(=O)c1ccc(NC(=O)COC(=O)/C=C/c2ccc3c(c2)OCO3)cc1`: the “hERG current change (%, negative = inhibition) at 1uM” value stood at 10.3%.

As to `COc1cccc(NC(=O)CCN2CCN(c3ccccc3F)CC2)c1`, the “hERG current change (%, negative = inhibition) at 1uM” value is 5.32%.

On to `COc1cc(C2=NOC(C(=O)Nc3c(C)n(C)n(-c4ccccc4)c3=O)C2)cc(OC)c1OC` (stereo not drawn), for which the “hERG current change (%, negative = inhibition) at 1uM” value was -1.14%.

Take `CC(=O)Nc1ccc(NC(=O)C(C)OC(=O)c2ccc(C)s2)cc1` (stereo not drawn): the “hERG current change (%, negative = inhibition) at 1uM” value was 3.72%.

`CCOC(=O)C1CCN(S(=O)(=O)c2ccc3c(c2)NC(=O)C(C)S3)CC1` (stereo not drawn): the “hERG current change (%, negative = inhibition) at 1uM” value stood at 10.5%.

Consider `CCNC(=O)NC(=O)COC(=O)CCCc1nc2ccccc2s1`, for which the “hERG current change (%, negative = inhibition) at 1uM” value is recorded as 17.4%.

Consider `CCOC(=O)CCC(=O)N1CCNC(=O)C1`, for which the “hERG current change (%, negative = inhibition) at 1uM” value is 13%.

Take `C[C@@]12CCC=C[C@H]1[C@H](c1ccc(C(F)(F)F)cc1)N(Cc1ccccc1)C2=O`: the “hERG current change (%, negative = inhibition) at 1uM” value was 9.17%.

Turning to `CC(=O)c1nnn(-c2ccccc2C#N)c1C`, the “hERG current change (%, negative = inhibition) at 1uM” value worked out at 10.3%.

`O=C(c1cccs1)N(c1cccc(Cl)c1)C1C=CS(=O)(=O)C1` (stereo not drawn): the “hERG current change (%, negative = inhibition) at 1uM” value is 7.72%.

With `Cc1nn(C)c(C)c1NC(=O)CCCSc1nc(-c2ccco2)cc(C(F)(F)F)n1`, the “hERG current change (%, negative = inhibition) at 1uM” value is 9.64%.

On to `Cc1cc(/C=C/C(=O)O)c(C)n1-c1ccc(Cl)cc1`, for which the “hERG current change (%, negative = inhibition) at 1uM” value is 11.1%.

Turning to `CC(C)c1ccc(/C=C(\NC(=O)c2ccccc2)C(=O)NCCCn2ccnc2)cc1`, the “hERG current change (%, negative = inhibition) at 1uM” value is given as -63.2%.

Regarding `COc1ccc(-n2cnnc2SCC(=O)Nc2cccnc2Cl)cc1`, the “hERG current change (%, negative = inhibition) at 1uM” value came to 6.41%.

For `Cc1cc(Cl)c(OCCOCCN2CCNCC2)c(Cl)c1.O=C(O)C(=O)O`, the “hERG current change (%, negative = inhibition) at 1uM” value is reported as 1.15%.

Turning to `S=C(NCCc1ccccn1)Nc1ccc(Cl)cc1`, the “hERG current change (%, negative = inhibition) at 1uM” value is 4.57%.

In the case of `O=C(Nc1c(-c2ccccc2)nc2ccccn12)c1cccc(F)c1`, the “hERG current change (%, negative = inhibition) at 1uM” value was determined as 13.2%.

Consider `COC(=O)CN1C(c2cccc(Cl)c2)=Nc2ccc(Cl)cc2C1c1ccccc1` (stereo not drawn), for which the “hERG current change (%, negative = inhibition) at 1uM” value is given as 6.57%.

Regarding `COc1ccc(C(=O)OCC(=O)Nc2ccc(F)c(F)c2)cc1OC`, the “hERG current change (%, negative = inhibition) at 1uM” value is on record as -3.19%.

Consider `CC1=C(c2ccccc2)C(=S)NC(C)(C)C1`, for which the “hERG current change (%, negative = inhibition) at 1uM” value was determined as 0.0863%.

Regarding `N#Cc1ccccc1OCC(=O)NC(=O)NCc1ccco1`, the “hERG current change (%, negative = inhibition) at 1uM” value was 3.34%.

Turning to `CC(=O)N1N=C(c2ccc(C)o2)CC1c1ccc(Br)cc1` (stereo not drawn), the “hERG current change (%, negative = inhibition) at 1uM” value is 14.2%.

In the case of `CCC(C(=O)Nc1cc(C)on1)c1ccccc1` (stereo not drawn), the “hERG current change (%, negative = inhibition) at 1uM” value stood at 8.48%.

For the compound `Br.CC(C)CCC1CC(CSC(=N)N)OC1=O` (stereo not drawn), the “hERG current change (%, negative = inhibition) at 1uM” value is recorded as 3.96%.

`CC(C)CNc1nc(N)c([N+](=O)[O-])c(N2CCCCCC2)n1`: the “hERG current change (%, negative = inhibition) at 1uM” value was 10.6%.

On to `COc1ccccc1N1CCN(C(=O)c2ccc(Cl)c(S(=O)(=O)N3CCCC3)c2)CC1`, for which the “hERG current change (%, negative = inhibition) at 1uM” value is given as -2.66%.

Turning to `Cc1cc(C(=O)NCCc2ccc(Cl)cc2)n(-c2ccccc2)n1`, the “hERG current change (%, negative = inhibition) at 1uM” value stood at 12.1%.

`O=C(Nc1ccc(F)cc1Cl)C1CCN(C(=O)Nc2ccccc2)CC1`: the “hERG current change (%, negative = inhibition) at 1uM” value is on record as 9.96%.

Turning to `Cl.Clc1cccc(OCCN2CCCC2)c1`, the “hERG current change (%, negative = inhibition) at 1uM” value was found to be 11.6%.

For the compound `Cc1ccc(OCC(=O)OCC(=O)NC2CCCC2)cc1C`, the “hERG current change (%, negative = inhibition) at 1uM” value amounted to 5.17%.

For `CC(=O)Nc1ccc(S(=O)(=O)N2CCN(c3cc(C)ccc3C)CC2)cc1`, the “hERG current change (%, negative = inhibition) at 1uM” value worked out at 7.73%.

In the case of `O=c1[nH]c2c(s1)C(c1ccccc1)C1C3CCC(C3)C1S2` (stereo not drawn), the “hERG current change (%, negative = inhibition) at 1uM” value is reported as 9.85%.

In the case of `CCCCn1c(N)c(N(CCC(C)C)C(=O)c2cc(CC)c(C)s2)c(=O)[nH]c1=O`, the “hERG current change (%, negative = inhibition) at 1uM” value turned out to be 8.95%.

Turning to `CC(=O)N1CC2(C)CN(C(C)=O)CC(C)(C1)C2=O`, the “hERG current change (%, negative = inhibition) at 1uM” value came to 5.55%.

`COc1ccccc1C(=O)OCCCN=C1NS(=O)(=O)c2ccccc21`: the “hERG current change (%, negative = inhibition) at 1uM” value is given as 16%.

For the compound `CCc1nnc(NC(=O)/C=C/c2ccc(C)o2)s1`, the “hERG current change (%, negative = inhibition) at 1uM” value is -3.68%.

For `Cc1cccc(C(=O)N[C@H](C(=O)Nc2nccs2)C(C)C)c1`, the “hERG current change (%, negative = inhibition) at 1uM” value was determined as 20%.

Take `Cc1ccsc1/C=N/NC(=O)c1sccc1C`: the “hERG current change (%, negative = inhibition) at 1uM” value came to 16.2%.

These data come from PMC4336329 (PLoS ONE, 2015).
